# Results as given in PubChem BioAssay AID686979 (National Center for Advancing Translational Sciences (NCATS), 2013).
# The whole screen tested about 420,000 compounds, of which about 50,000 (12%) were called active. This list was built around the results that the source calls inconclusive (neither active nor inactive); the mix of calls is not that of the screen. Calls follow the shape of the dose curve; as a rule, active = well fitted inhibition curve with a large enough effect; inconclusive = small, poorly fitted or top-dose-only effect; inactive = flat fitted curve, though single readings scatter. Potencies of inconclusive entries are left out as doubtful fits.
# Test: qHTS for Inhibitors of human tyrosyl-DNA phosphodiesterase 1 (TDP1): qHTS in cells in presence of CPT; also: nearly all actives have a fitted effect of over 55% in size
# Settings: chicken DT40 Tdp1-/-;hTDP1 cells + 20 nM CPT, ATP luminescence, 48 h; activity change, negative = growth inhibition: at 46.2 µM (top of the series) unless noted
# Procedure, shortened: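 Chicken DT40 Tdp1-/- cells complemented with human TDP1, 400 cells/well, exposed to compounds plus 20 nM camptothecin for at least 48 h at 37 C; viability read as ATP content by CellTiter-Glo luminescence.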
# % is scaled to controls: 0 for no effect and ±100 for the full control effect; potency is read from the fitted curve at half-maximal effect; tags tell the direction and shape of the fitted curve.
SMILES,"activity change, negative = growth inhibition",Potency
Cc1sc2ncnc(SCc3ccco3)c2c1C,inconclusive: -33.5% [inhibitor],–
O=C(Nc1ccc(O)cc1)c1ccccc1O,–,"inconclusive [inhibitor, single point]"
CCOC(=O)CSc1nc(-c2ccccn2)ncc1OC,–,active: 8.2 µM
COc1ccc(C(CNC(=O)CCNC(=O)c2ccc(Br)cc2)N2CCOCC2)cc1 (centres undefined),–,inactive
CCN(CC)S(=O)(=O)c1ccc(/C=C/C(=O)Nc2ccccc2N2CCOCC2)cc1,–,"inconclusive [inhibitor, single point]"
CCc1ccc([C@H]2[C@@H]3C(=O)C[C@@H]4C(=O)N(CC)C(=O)[C@@H]4[C@@H]3CN2S(=O)(=O)c2ccc(C)cc2)cc1,–,"inconclusive [inhibitor, partial curve]"
COc1ccc(-c2csc(N(CCCN(C)C)C(=O)c3ccccc3Cl)n2)cc1,–,"inconclusive [inhibitor, single point]"
C=CCNC(=O)/C(C#N)=C/c1c(N2CCN(c3ccc(OC)cc3)CC2)nc2c(C)cccn2c1=O,–,"inconclusive [inhibitor, single point]"
O=C(N/N=C/c1cccc([N+](=O)[O-])c1)C1CC(=O)N(c2ccc(Br)cc2)C1 (centres undefined),–,"inconclusive [inhibitor, single point]"
O=C1NC(Cc2ccc(O)cc2)c2nc3cc(F)c(F)cc3c(=O)n2-c2cc3ccccc3cc21 (centres undefined),–,"inconclusive [inhibitor, single point]"
CC(=O)C1=C(O)CC(c2ccccc2)CC1=NCCc1c(C)[nH]c2ccc(C)cc12 (centres undefined),–,"inconclusive [inhibitor, partial curve]"
O=C(COC(=O)c1n[nH]c2ccccc12)NC(=O)NC12CC3CC(CC(C3)C1)C2,–,active: 13 µM
CCCOc1ccc(C(=O)N2CCN(Cc3ccc4c(c3)OCO4)CC2)cc1,–,inactive
CCOC(=O)C1(CC2CC2)CCN(C(=O)c2ocnc2C)CC1,–,inactive
CCC(=O)N1CCc2cc(S(=O)(=O)NC(Cc3ccccc3)C(=O)NC3CCCCC3C)ccc21 (centres undefined),–,"inconclusive [inhibitor, single point]"
CCOc1ccccc1CNC(=O)c1cc2c(=O)n(Cc3ccccc3)ccc2nc1C,–,active: 18.4 µM
CCOc1ccc(NC(=O)CSc2nccn2-c2cccc(C)c2C)cc1,–,active: 18.4 µM
CCCCc1c(-c2ccc(Br)cc2)ncn1CCc1ccccc1OC,–,active: 1.3 µM
COc1ccc(CNc2ccc([N+](=O)[O-])cn2)cc1,–,"inconclusive [inhibitor, partial curve, poor fit]"
CCC1CCCCN1Cc1nc2c(c(=O)n(C)c(=O)n2C)n1CCC(C)C (centres undefined),–,active: 16.4 µM
COC(=O)c1c(SCc2cccc3ccccc23)nc(=O)[nH]c1C,–,"inconclusive [inhibitor, single point]"
Cc1ccc(-c2csc(N(CCO)CCCn3c(C(F)(F)F)nc4ccccc43)n2)cc1,–,active: 20.6 µM
COc1ccccc1CNC(=O)CN1NS(=O)(=O)c2ccccc2C1=O,–,inactive
CC(Sc1nnc(C2CC2)n1N)C(=O)NC1CCCCC1C (centres undefined),–,inactive
CN(C)c1ccc(C(=O)NCCCSc2ccccc2)cc1,–,inactive

SMILES,"activity change, negative = growth inhibition",Potency
c1ccc2nc3ccccc3nc2c1,–,inactive
CC(C)(C)c1nnc2sc(SCC(=O)N3CCCCC3)nn2c1=O,–,"inconclusive [inhibitor, single point]"
CC1(C)CC(=O)C2=C(C1)N=C1SCCC(=O)N1C2c1ccccc1 (centres undefined),–,inactive
COc1ccc(C(=O)CSc2nnn(-c3cccc(NC(C)=O)c3)n2)cc1,inconclusive: -33.7% [inhibitor],–
COc1ccc(CN2CCNC(=O)C2CC(=O)NCc2csc(C)n2)c(F)c1 (centres undefined),–,inactive
COCCn1nnnc1C(c1ccccn1)N1CCN(c2cccc(C)c2C)CC1 (centres undefined),–,inactive
CC(=O)Nc1ccc(Nc2cc(-c3ccccc3)nc3ncnn23)cc1,–,inactive
CCOC(=O)C1CCN(S(=O)(=O)c2cc(-c3onc(C)c3C)ccc2OC)CC1,–,"inconclusive [inhibitor, single point]"
Cc1nn(CC(=O)N(C)C2(C#N)CCCCC2)c(C)c1[N+](=O)[O-],–,inactive
O=C(/C=C/c1ccc(Cl)cc1)NC(=S)Nc1ccc(N2CCOCC2)c(Cl)c1,–,active: 11.6 µM
O=S(=O)(NCC(c1ccco1)S(=O)(=O)c1cccs1)c1ccc(F)c(C(F)(F)F)c1 (centres undefined),–,"inconclusive [inhibitor, full curve, poor fit]"
CC1CC(C)CN(C(=O)c2cc(S(=O)(=O)N3CCCCC3)ccc2Cl)C1 (centres undefined),–,active: 16.4 µM
Cc1cc(C(=O)CSc2nc3ccc(Cl)cc3[nH]2)c(C)n1C,–,"inconclusive [inhibitor, single point]"
COc1ccc(NC(=O)CN(C)C(=O)Cc2ccsc2)cc1,–,inactive
CN(Cc1ccc(Br)cc1)CC(O)COc1cccc(Br)c1 (centres undefined),–,"inconclusive [inhibitor, single point]"
CCOc1ccccc1-c1noc(CCCC(=O)NC2CCCCC2)n1,–,inactive
Brc1ccc(N=Nc2ccc3ccccc3n2)cc1,–,inactive
COc1ccc(S(=O)(=O)N2CCN(Cc3cc(OC)c(OC)cc3OC)CC2)cc1,–,"inconclusive [inhibitor, single point]"
COc1ccc(C(=O)C=Cc2ccc(OCc3ccccc3)c(OC)c2)cc1OC,–,active: 7.31 µM
Cc1ccc(C)c(N2CCN(CC3CCCCC3)CC2)c1,–,"inconclusive [inhibitor, single point]"
COCCn1cc(C(=O)c2cc(Br)ccc2O)cc(C#N)c1=O,–,"inconclusive [inhibitor, partial curve]"
Cc1ccccc1-c1csc(C(O)(c2ccccc2)C(F)(F)F)n1 (centres undefined),–,"inconclusive [inhibitor, single point]"
CC[n+]1c(/C=C/c2cc([N+](=O)[O-])ccc2O)ccc2ccccc21,–,"inconclusive [inhibitor, single point]"
Cc1ccc(CNC(=O)C2CCC(CNS(=O)(=O)c3cccc4cccnc34)CC2)cc1 (centres undefined),–,inactive
CC(=O)Nc1cc(-c2ccc(C(=O)N3CCOCC3)cc2)cn2c(-c3cccc(C(C)=O)c3)cnc12,–,"inconclusive [inhibitor, single point]"

SMILES,"activity change, negative = growth inhibition",Potency
COc1ccc(CCNC(=O)CSc2ncc3c(n2)-c2cc(Cl)ccc2N(Cc2ccccc2)S3(=O)=O)cc1OC,–,inactive
CCc1ccc(S(=O)(=O)c2nnn3c2nc(NCCNC(C)=O)c2ccccc23)cc1,–,inactive
CN(C(=O)c1ccc2c(=O)n3c(nc2c1)CCCCC3)c1cccc(Cl)c1,–,active: 23.1 µM
COc1ccc(C(=O)N2CCN(c3nnnn3-c3ccccc3)CC2)cc1OC,–,inactive
O=C(COc1cc(Cl)c(Cl)cc1Cl)Nc1ccc([N+](=O)[O-])cc1Cl,–,"inconclusive [inhibitor, single point]"
COc1ccccc1C(=O)N/C(=C\c1cn(S(=O)(=O)N(C)C)c2ccccc12)C(=O)N1CCOCC1,–,"inconclusive [inhibitor, partial curve]"
Cc1cc(=O)n2nc(N3CCC(C(=O)NCc4cccc(Cl)c4)CC3)sc2n1,–,"inconclusive [inhibitor, single point]"
CCCCCCCNC(=O)C1(CC2CC(c3ccc(Cl)cc3)=NO2)CCN(C(=O)OC(C)(C)C)CC1 (centres undefined),–,"inconclusive [inhibitor, single point]"
Cc1ccc(CNC(=O)c2cc3c(=O)n(C)c4ccccc4c3n2C)cc1,–,"inconclusive [inhibitor, single point]"
O=C(/C=C/c1ccccc1)NC(=S)NNC(=O)c1ccco1,–,"inconclusive [inhibitor, single point]"
COc1cccc(CNC(=O)[C@@H]2CCCN2C(=O)[C@H]2CCCCN2C(=O)OC(C)(C)C)c1,–,inactive
CCN(CC)CC(=O)N1c2ccccc2Sc2ccc(Cl)cc21,–,inactive
COc1ccc2c(=O)c3c(=O)n(Cc4ccco4)c(-c4cc(OC)c(OC)c(OC)c4)nc3oc2c1,–,"inconclusive [inhibitor, single point]"
COc1cc(/C=C(/C#N)C(=O)NCc2ccccc2)cc(OC)c1OC,–,inactive
CCOc1ccc(-c2nnc3sc(-c4ccccc4OC)nn23)cc1,–,inactive
O=C(Nc1nnc(-c2ccccn2)o1)c1ccc(Br)cc1,–,"inconclusive [inhibitor, single point]"
O=C(NCc1n[nH]c(=S)n1-c1ccc(Cl)c(Cl)c1)c1ccco1,–,inactive
Nc1c(N(CCO)C(=O)C2CCCCC2)c(=O)[nH]c(=O)n1Cc1ccccc1,inconclusive: -33.7% [inhibitor],–
O=C(O)CC(NC(=O)C(c1ccccc1)c1ccccc1)c1ccc(F)cc1 (centres undefined),–,inactive
CC1=C(C(=O)N(C(C)C)C(C)C)CC(CC(=O)NCc2cccc3ccccc23)C(=O)N1CCC1=CCCCC1 (centres undefined),–,"inconclusive [inhibitor, single point]"
CC(C)(C)C(=O)O/N=C(\N)c1ccc([N+](=O)[O-])s1,–,active: 6.51 µM
O=C1CN2NC(=S)N(c3ccc(Cl)cc3)C2=CN1c1ccc(Cl)cc1,–,inactive
CC(=O)N1CCc2cc(NC(=O)C3(C)CCN3Cc3ccccc3OC(F)F)ccc21 (centres undefined),–,active: 25.9 µM
O=C(c1ccc(F)cc1)N1CCN(c2ccc([N+](=O)[O-])c(N3CCOCC3)c2)CC1,–,"inconclusive [inhibitor, single point]"
